Nine compounds from PMC11406361, “Several orphan solute carriers functionally identified as organic cation transporters: Substrates specificity compared with known cation transporters” (The Journal of Biological Chemistry, 2024) can be followed below.

Chain of SLC35G3 (Q8N808 whole entry): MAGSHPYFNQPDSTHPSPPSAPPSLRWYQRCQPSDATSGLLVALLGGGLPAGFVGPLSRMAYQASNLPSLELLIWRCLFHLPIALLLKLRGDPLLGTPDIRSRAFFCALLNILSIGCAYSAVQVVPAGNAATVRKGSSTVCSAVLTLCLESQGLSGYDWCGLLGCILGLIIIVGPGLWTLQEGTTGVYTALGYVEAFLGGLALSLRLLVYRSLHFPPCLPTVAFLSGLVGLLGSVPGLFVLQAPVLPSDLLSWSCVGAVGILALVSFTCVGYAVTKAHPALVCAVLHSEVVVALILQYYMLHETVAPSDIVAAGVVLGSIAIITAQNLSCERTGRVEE

One experiment has as its target SLC35G3 (Homo sapiens, UniProt Q8N808). The experiment is described as follows: Uptake ratio screen, SLC35G3-overexpressing HEK293 over empty vector cells. It is filed as cell-based. More on the design: by amplifying the entire gene-of-interest within the HEK293 genome via a long-range PCR.
Details: not given
Consider `CC(C)[N+]1(C)[C@@H]2CC[C@H]1C[C@@H](OC(=O)C(CO)c1ccccc1)C2` (stereo partly shown) [Ipratropium], for which the “Uptake data for SLC35G3, mean value (fold-increase over empty vector control)” value is 1.25.

For the compound `CN1CC[C@]23c4c5ccc(O)c4O[C@H]2[C@@H](O)C=C[C@H]3[C@H]1C5` [Morphine], the “Uptake data for SLC35G3, mean value (fold-increase over empty vector control)” value is reported as 1.20.

`CN1[C@@H]2C[C@@H](OC(=O)[C@H](CO)c3ccccc3)C[C@H]1[C@@H]1O[C@@H]12` [Scopolamine]: the “Uptake data for SLC35G3, mean value (fold-increase over empty vector control)” value was 1.64.

Still in this experiment, the particulars now being: 2.5 μM substrate, 2 min, HEK293.
Consider `CCCCc1oc2ccccc2c1C(=O)c1cc(I)c(OCCN(CC)CC)c(I)c1` [Amiodaron], for which the “Uptake data for SLC35G3, mean value (fold-increase over empty vector control)” value is 1.35.

Consider `CC(C)NCC(O)COc1ccc(CC(N)=O)cc1` (stereo not shown) [Atenolol], for which the “Uptake data for SLC35G3, mean value (fold-increase over empty vector control)” value amounted to 0.97.

Consider `O=C(O)COCCN1CCN(C(c2ccccc2)c2ccc(Cl)cc2)CC1` (stereo not shown) [Cetirizine], for which the “Uptake data for SLC35G3, mean value (fold-increase over empty vector control)” value is on record as 1.21.

Consider `CN(C)CCOC(c1ccccc1)c1ccccc1.Cn1c(=O)c2[nH]c(Cl)nc2n(C)c1=O` [Dimenhydrinate], for which the “Uptake data for SLC35G3, mean value (fold-increase over empty vector control)” value was 1.37.

Turning to `CN(C)CCOC(c1ccccc1)c1ccccc1` [Diphenhydramine], the “Uptake data for SLC35G3, mean value (fold-increase over empty vector control)” value is recorded as 1.53.

Regarding `CCN(CC)CC(=O)Nc1c(C)cccc1C` [Lidocaine], the “Uptake data for SLC35G3, mean value (fold-increase over empty vector control)” value was 2.48.

The target in another experiment is T1, SLC35F4 (Homo sapiens, UniProt A4IF30).
T1 sequence (A4IF30 1-521): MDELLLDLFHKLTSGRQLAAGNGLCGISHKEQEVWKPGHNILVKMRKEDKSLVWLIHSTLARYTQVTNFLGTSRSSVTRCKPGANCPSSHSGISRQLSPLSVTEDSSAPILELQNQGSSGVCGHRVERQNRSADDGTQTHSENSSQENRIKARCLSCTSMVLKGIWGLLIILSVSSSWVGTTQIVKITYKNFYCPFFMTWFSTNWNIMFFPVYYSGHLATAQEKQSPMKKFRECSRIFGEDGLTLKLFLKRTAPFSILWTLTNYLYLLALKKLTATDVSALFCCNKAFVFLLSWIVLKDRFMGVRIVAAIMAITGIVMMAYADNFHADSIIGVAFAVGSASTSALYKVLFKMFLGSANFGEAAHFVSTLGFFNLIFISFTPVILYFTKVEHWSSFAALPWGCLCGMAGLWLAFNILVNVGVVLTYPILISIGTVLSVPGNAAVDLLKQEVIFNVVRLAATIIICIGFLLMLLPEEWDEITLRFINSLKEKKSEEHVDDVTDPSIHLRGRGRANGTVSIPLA
Briefly: Uptake ratio screen, SLC35F4-overexpressing HEK293 over empty vector cells. It is filed as cell-based. More on the design: by amplifying the entire gene-of-interest within the HEK293 genome via a long-range PCR. To be noted: 2.5 μM, 2 min. How it is done:
Typically discussed substrates of the proton organic-cation antiporter ([14]) are highlighted in dark green in Figure 1.
In preparation for transport experiments, 24-well plates were pre-coated with poly-D-lysine (Sigma-Aldrich) and 300,000 cells were plated per well and incubated for 48 h. Firstly, the 24-well plate was placed on a heating plate at 37 °C, and the cells were washed with 37 °C HBSS^+ buffer (Hank’s balanced salt solution supplemented with 10 mM Hepes and adjusted to pH 7.4; Thermo Fisher Scientific). The substance-of-interest, which was diluted in 37 °C HBSS^+ to a desired concentration, was added to the cells for exactly 2 min. […] For variations in seeded cell numbers between the cell lines, several wells were lysed in RIPA buffer and used for total protein quantification using a bicinchoninic assay ([74]) and bovine serum albumin as calibration.
The intracellular drug concentrations after transport experiments were analyzed by high-performance liquid chromatography coupled to tandem mass spectrometry analysis. […] After separation, the detection of substances was performed with an API 4000 tandem mass spectrometer (AB SCIEX, https://sciex.com/support/software-support/software-downloads), followed by quantification of results with the Analyst software (AB SCIEX, version 1.6.2). […]
`CN(C)CCOC(c1ccccc1)c1ccccc1` [Diphenhydramine]: the “Uptake by SLC35F4 (in words)” value was “enhanced cell uptake”.
